The full ranking holds about 16,000 sequences; the median of “Z-score” is about -0.37, and the highest 2% start at about 3.1. The list shows a part of the results.

In this assay the test system is RBM10 RRM1-ZnF-RRM2 (GST-tagged construct). Kind of assay: RNAcompete 7-mer binding Z-score; higher = stronger binding preference. The procedure:
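RNAcompete: 20 pmol GST-tagged RBM10 RNA-binding constructs were incubated with a designed RNA pool of about 241,000 sequences up to 41 nt (1.5 nmol) on glutathione beads for 30 min at 4 °C and washed. Bound RNAs were identified by microarray hybridisation. Each RNA 7-mer is scored by a one-sided Z-score of its enrichment, computed over probes that contain the 7-mer within longer pool sequences.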
For the sequence GCGACCG, the “RNAcompete 7-mer binding Z-score” value is -0.0197.

Take UCCCGUU: the “RNAcompete 7-mer binding Z-score” value is -0.799.

Consider GAGAUGU, for which the “RNAcompete 7-mer binding Z-score” value stood at 0.392.

In the case of UCCGCCA, the “RNAcompete 7-mer binding Z-score” value was -0.861.

On to GAGCACU, for which the “RNAcompete 7-mer binding Z-score” value is -0.435.

For the sequence AAGUCCC, the “RNAcompete 7-mer binding Z-score” value was -0.632.

For ACUUGGC, the “RNAcompete 7-mer binding Z-score” value is -0.679.

Regarding UCGAAAU, the “RNAcompete 7-mer binding Z-score” value was -0.573.

As to UAUUAUG, the “RNAcompete 7-mer binding Z-score” value was -0.078.

For GCGUUCC, the “RNAcompete 7-mer binding Z-score” value is -0.562.

On to GUUAGGU, for which the “RNAcompete 7-mer binding Z-score” value turned out to be 1.89.

In the case of UACCGUU, the “RNAcompete 7-mer binding Z-score” value is -0.643.

Take UGAGUGU: the “RNAcompete 7-mer binding Z-score” value is 0.355.

On to GGACAUC, for which the “RNAcompete 7-mer binding Z-score” value came to 0.272.

In the case of UCCAUUA, the “RNAcompete 7-mer binding Z-score” value was -0.653.

Turning to GUUCAGG, the “RNAcompete 7-mer binding Z-score” value amounted to 0.53.

AGGUUUG: the “RNAcompete 7-mer binding Z-score” value came out at 0.942.

With CUUGCAG, the “RNAcompete 7-mer binding Z-score” value is -0.697.

For CUUAAGU, the “RNAcompete 7-mer binding Z-score” value is -0.628.

For the sequence AUGACUG, the “RNAcompete 7-mer binding Z-score” value was -0.213.

CCGGGUU: the “RNAcompete 7-mer binding Z-score” value was found to be 0.385.

For CCUGUGA, the “RNAcompete 7-mer binding Z-score” value is -0.737.

Turning to UCUUAGA, the “RNAcompete 7-mer binding Z-score” value was -0.657.

Turning to CUUCACG, the “RNAcompete 7-mer binding Z-score” value is -0.825.

For ACAGCUA, the “RNAcompete 7-mer binding Z-score” value is -0.398.

As for AUGGAGU, the “RNAcompete 7-mer binding Z-score” value was 2.24.

In the case of AAACGAG, the “RNAcompete 7-mer binding Z-score” value worked out at 0.738.

Take UACGAGA: the “RNAcompete 7-mer binding Z-score” value turned out to be 0.00944.

Turning to UGACCCA, the “RNAcompete 7-mer binding Z-score” value is -0.562.

As to CGUGCCG, the “RNAcompete 7-mer binding Z-score” value is -0.49.

With GAGCGAA, the “RNAcompete 7-mer binding Z-score” value turned out to be 1.04.

With ACGCAUG, the “RNAcompete 7-mer binding Z-score” value was -0.00877.

In the case of GCUGACG, the “RNAcompete 7-mer binding Z-score” value was 0.0058.

Regarding GCACGCC, the “RNAcompete 7-mer binding Z-score” value was -0.581.

For the sequence CAAGUAU, the “RNAcompete 7-mer binding Z-score” value is -0.391.

Take AUAUAUU: the “RNAcompete 7-mer binding Z-score” value is -0.515.

Turning to CAUAUAU, the “RNAcompete 7-mer binding Z-score” value is -0.602.

On to UAAACGC, for which the “RNAcompete 7-mer binding Z-score” value was -0.533.

As to AUAUUGA, the “RNAcompete 7-mer binding Z-score” value was -0.198.

Regarding GCGGCUC, the “RNAcompete 7-mer binding Z-score” value was -0.191.

In the case of AAACUAG, the “RNAcompete 7-mer binding Z-score” value is -0.0306.

With UACGCCC, the “RNAcompete 7-mer binding Z-score” value is -0.741.

Take GUAUUCC: the “RNAcompete 7-mer binding Z-score” value was -0.271.

Regarding CCAGCCG, the “RNAcompete 7-mer binding Z-score” value is -0.657.

Consider CCCUAAA, for which the “RNAcompete 7-mer binding Z-score” value is -0.814.

As for AUUUGAG, the “RNAcompete 7-mer binding Z-score” value is -0.078.

For CGGCUGC, the “RNAcompete 7-mer binding Z-score” value is -0.0998.

In the case of CUACUUC, the “RNAcompete 7-mer binding Z-score” value is -0.992.

Consider AUCGCAA, for which the “RNAcompete 7-mer binding Z-score” value was -0.388.

Take UACAGGU: the “RNAcompete 7-mer binding Z-score” value is 0.763.

Take UGGAGCU: the “RNAcompete 7-mer binding Z-score” value was found to be 0.494.

Take GCUGGCG: the “RNAcompete 7-mer binding Z-score” value came out at 0.647.

For GAUGUCU, the “RNAcompete 7-mer binding Z-score” value is -0.537.

On to CCGUACG, for which the “RNAcompete 7-mer binding Z-score” value is -0.544.

As to GUAACUU, the “RNAcompete 7-mer binding Z-score” value was -0.435.

Take CCCUUCU: the “RNAcompete 7-mer binding Z-score” value is -0.836.

For AGUCCCU, the “RNAcompete 7-mer binding Z-score” value was -0.85.

As to GUCCGAC, the “RNAcompete 7-mer binding Z-score” value is -0.704.

For the sequence CCUAGUA, the “RNAcompete 7-mer binding Z-score” value was -0.482.

For the sequence GCUUAUG, the “RNAcompete 7-mer binding Z-score” value is -0.435.

As for AUCAAGC, the “RNAcompete 7-mer binding Z-score” value was -0.435.

Take ACUUUGG: the “RNAcompete 7-mer binding Z-score” value was -0.351.

Regarding UUCACCA, the “RNAcompete 7-mer binding Z-score” value is -0.792.

In the case of CAGACGA, the “RNAcompete 7-mer binding Z-score” value was 0.501.

In the case of UAAAGAG, the “RNAcompete 7-mer binding Z-score” value was 0.312.

Regarding UAUCGCG, the “RNAcompete 7-mer binding Z-score” value is -0.358.

As to UUUGCGG, the “RNAcompete 7-mer binding Z-score” value is -0.14.

Consider GAUCUGA, for which the “RNAcompete 7-mer binding Z-score” value was -0.519.

Turning to UUGGGUC, the “RNAcompete 7-mer binding Z-score” value turned out to be 1.03.

For CGGUCCA, the “RNAcompete 7-mer binding Z-score” value was -0.537.

For CACCGAG, the “RNAcompete 7-mer binding Z-score” value was -0.289.

Regarding UACAAUG, the “RNAcompete 7-mer binding Z-score” value was -0.0925.

Consider UAGGUUG, for which the “RNAcompete 7-mer binding Z-score” value was determined as 1.68.

As for CGCGAAA, the “RNAcompete 7-mer binding Z-score” value is -0.475.

On to UUUGUGG, for which the “RNAcompete 7-mer binding Z-score” value was 0.833.

With CUGUUAA, the “RNAcompete 7-mer binding Z-score” value is -0.781.

In the case of CCGCCGU, the “RNAcompete 7-mer binding Z-score” value was -0.683.

As to UUGCACG, the “RNAcompete 7-mer binding Z-score” value is -0.253.

As to AGGAUGG, the “RNAcompete 7-mer binding Z-score” value was 3.4.

Turning to GUACUUC, the “RNAcompete 7-mer binding Z-score” value is -0.694.

As to GACGCGG, the “RNAcompete 7-mer binding Z-score” value worked out at 1.03.

Consider CCUCUGA, for which the “RNAcompete 7-mer binding Z-score” value is -0.788.

Consider CACCAGG, for which the “RNAcompete 7-mer binding Z-score” value turned out to be 0.21.

As for AGCUACG, the “RNAcompete 7-mer binding Z-score” value is -0.213.

As to ACCAGGA, the “RNAcompete 7-mer binding Z-score” value stood at 1.09.

With UCAACAA, the “RNAcompete 7-mer binding Z-score” value is -0.373.

With GUGUCCC, the “RNAcompete 7-mer binding Z-score” value is -0.26.

As for GUUUCAA, the “RNAcompete 7-mer binding Z-score” value is -0.475.

As for CAACUGG, the “RNAcompete 7-mer binding Z-score” value was 0.0786.

Regarding GUUAUCG, the “RNAcompete 7-mer binding Z-score” value is 0.0313.

With CAACAUU, the “RNAcompete 7-mer binding Z-score” value is -0.566.

For AAACCGU, the “RNAcompete 7-mer binding Z-score” value is -0.602.

Source of the values: the supplement of paper PMC5499739.
